# Source: the RNAGym collection of RNA variant scans (doi:10.1073/pnas.2313332121)
# Variants at the background level are over-represented here.
# B1: TPR 5TU (parent)
# chain: GGAUCUUCUCGAUCUAACAAAAAAGACAAAUCUGCCACAAAGCUUGAGAGCAUCUUCGGAUGCAGAGGCGGCAGCCUUCGGUGGCGCGAUAGCGCCAACGUUCUCAACUAUGACACGCAAAACGCGUGCUCCGUUGAAUGGAGUUUAUCAUG
# Variants of: B1
# Experiment: polymerase ribozyme fitness, log enrichment relative to wild type (log ratio); higher = more active; in vitro selection for triplet polymerase activity
# In short: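 PCR was used to build mutant libraries for each subunit of a heterodimeric triplet polymerase ribozyme, which were then transcribed. A single in vitro selection round, in triplicate, used a frozen incubation at −7 °C and recovered extended constructs by gel excision, streptavidin beads and RT-PCR. Fitness is the logarithm of genotype enrichment relative to wild-type enrichment, averaged over replicates with inverse-variance weights. The logarithm is base 2, and after Illumina sequencing only genotypes with ≥10 input reads and ≥1 read per output were kept.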
row,Variant,polymerase ribozyme fitness (log ratio)
1,A40C A122G,0.759
2,A40C C43A G80U C87A,≤ -4.2
3,A40C C54U U56A G126U,-0.0276
4,A40C C57U A60G U61A,-2.29
5,A40C C69G G83C C131G,≤ -4.2
6,A40C C131G,-3.13
7,A40C G42A A52C G94C C99U,≤ -4.2
8,A40C G42U G71C U144C U148C,≤ -4.2
9,A40C G42U U56A C57U G70C C87A G117U,≤ -4.2
10,A40C G46C C57A G74C C103A A107U C118G U134G G140C,≤ -4.2
11,A40C G48C C85G C95G U104G A122C U127G U135G,≤ -4.2
12,A40C G48C U56G,-1.94
13,A40C G50A A60U G88U G92C C95G G100U,≤ -4.2
14,A40C G71A C76G G83A C85U A107G G126U A138C,≤ -4.2
15,A40C G71C C85G U127G C131G U144G,≤ -4.2
16,A40C G71C C85G U134G,≤ -4.2
17,A40C G88U C96G C114U,≤ -4.2
18,A40C U44G G80A G84A G133C,≤ -4.2
19,A40C U45A C51U C76U C85A A106G C118U U134G,≤ -4.2
20,A40C U55A C85U A97C G100A,≤ -4.2
21,A40C U55A G59A A113U C123A,-0.982
22,A40C U55A U104C,-0.475
23,A40C U55G G58A U130A U135C,≤ -4.2
24,A40C U56A A89G,-0.978

row,Variant,polymerase ribozyme fitness (log ratio)
1,A40C U56A C57U G140C,-3.75
2,A40C U61A U90C A147G,≤ -4.2
3,A40C U61G C87G C93A,≤ -4.2
4,A40C U77A G94A A97C C99U A113G G117U U139G U144G,≤ -4.2
5,A40C U77G,≤ -4.2
6,A40C U82G G94A,0.746
7,A40G A52C C87A G126C A137C,≤ -4.2
8,A40G A52C G83U A98C,-3.64
9,A40G A52G A91C A119U G128A,≤ -4.2
10,A40G A64C G70A C114U,≤ -4.2
11,A40G A91C,≤ -4.2
12,A40G C43G A64C,≤ -4.2
13,A40G C43U G124A,≤ -4.2
14,A40G C57A C72U C87A,≤ -4.2
15,A40G C63G C85U U145A,-2.16
16,A40G C85U C118A,-2.77
17,A40G C87G C103A G117U,≤ -4.2
18,A40G C93A A137U,≤ -4.2
19,A40G C96U,-1.81
20,A40G G46A A64U G81A G88C G126A,≤ -4.2
21,A40G G46C A49G C85U A97C C118U U145G,≤ -4.2
22,A40G G50C C79G G88C,≤ -4.2
23,A40G G58A A64G C85A G94A A150C,≤ -4.2
24,A40G G62C G84A C93G G100U U151G,≤ -4.2

row,Variant,polymerase ribozyme fitness (log ratio)
1,A40G G67U C85A A98U U144C U145A,≤ -4.2
2,A40G G70A U109C A147C,≤ -4.2
3,A40G G83A C116G A138G,≤ -4.2
4,A40G G94C,-1.82
5,A40G G117A,-3.18
6,A40G G143A,-2.88
7,A40G U53G G84A A110G G136U,≤ -4.2
8,A40G U56A,-1.21
9,A40U A41C A49G C96A,-1.32
10,A40U A41C G68A C105A,≤ -4.2
11,A40U A49C,≤ -4.2
12,A40U A49U A60C C63G U78C G86A A97U C149A,≤ -4.2
13,A40U A49U C87U G141U A142U,≤ -4.2
14,A40U A52G C116G A137C,≤ -4.2
15,A40U A66G A73U U78G A89C C93U C116U U144C A147G,≤ -4.2
16,A40U A98G,-0.242
17,A40U C43U U53A U77C G80A G100A A107U,≤ -4.2
18,A40U C51A C87A A142C,≤ -4.2
19,A40U C51G C57U G83A G84A G117C U144A U146A,≤ -4.2
20,A40U C57G C105A,-0.98
21,A40U C63G,0.0879
22,A40U C69U G84C G143C,≤ -4.2
23,A40U C75G C85G U135G G140U,≤ -4.2
24,A40U C76A C87G C108G,≤ -4.2

row,Variant,polymerase ribozyme fitness (log ratio)
1,A40U C79G A91G,≤ -4.2
2,A40U C79U A121G,-2.75
3,A40U C87A,-3.87
4,A40U C87U G88U,≤ -4.2
5,A40U C93G C116U U139A U145A,≤ -4.2
6,A40U C114U,-2.19
7,A40U G42U C69U A89G A91U A106C C149U,≤ -4.2
8,A40U G46C G68A C87A,≤ -4.2
9,A40U G50A A97C G112C C123U A137G,≤ -4.2
10,A40U G50A C96U A107G,≤ -4.2
11,A40U G50C C85G C99U A137U U148G,≤ -4.2
12,A40U G50C G67C C103A C129G U144G,≤ -4.2
13,A40U G50U G80A G126A C132G,≤ -4.2
14,A40U G62A C95U U104C G133C,-3.3
15,A40U G62A C131G G136A,-3.43
16,A40U G65U C75U A97C A119U,≤ -4.2
17,A40U G68C G92C U135C,≤ -4.2
18,A40U G81C C85U A91C G126A U148A,≤ -4.2
19,A40U G117U C149G,≤ -4.2
20,A40U U45A C69U G83U G141A U144A,≤ -4.2
21,A40U U45A G59A G86A C118U,≤ -4.2
22,A40U U45C C57G G81C G100C C116A,≤ -4.2
23,A40U U53G C69A C99G C108G A110U A147C,≤ -4.2
24,A40U U55A G86A G133U,≤ -4.2

row,Variant,polymerase ribozyme fitness (log ratio)
1,A40U U55A U101C A120C,-0.406
2,A40U U56A C87A C93G A113G C116G G136U U146C,≤ -4.2
3,A40U U56A G74U C118G,≤ -4.2
4,A40U U61A C85U C99U C108U C114U C118U,≤ -4.2
5,A40U U61G C69U,-1.67
6,A41C A47C U56A C85U,-1.41
7,A41C A47U G59U U61A G70C G84U C125A,≤ -4.2
8,A41C A49C,-4.01
9,A41C A49C G50U C51A G92C A106G,≤ -4.2
10,A41C A49C U144A,≤ -4.2
11,A41C A52C C114A C116G,≤ -4.2
12,A41C A52G G62C C95G C131A A142U C149A,≤ -4.2
13,A41C A60U G67U U135G G140A,≤ -4.2
14,A41C A66C A106U G117A A119G,≤ -4.2
15,A41C A66G C87G U144G,≤ -4.2
16,A41C A91C A106U U148C,≤ -4.2
17,A41C A113U C114A,≤ -4.2
18,A41C A119G G140C,≤ -4.2
19,A41C A137C,-3.61
20,A41C C43A G86A A91C C96A,≤ -4.2
21,A41C C43U C51G C96G A107U A120C,≤ -4.2
22,A41C C43U G71U U78G C93U,≤ -4.2
23,A41C C43U G83C C116U C131U A142C,≤ -4.2
24,A41C C51A A64G C96A C99U,≤ -4.2

row,Variant,polymerase ribozyme fitness (log ratio)
1,A41C C51A U56A G58C U82C C87A G136U,≤ -4.2
2,A41C C51U U77A U78C G88C C125G G141U,≤ -4.2
3,A41C C54G G67A C76U C87U A106G,≤ -4.2
4,A41C C54U A110G,-2.74
5,A41C C57G C87A G143C,≤ -4.2
6,A41C C57G G136U,-3.64
7,A41C C57U C96U,-0.458
8,A41C C63G A64C U111C,≤ -4.2
9,A41C C63G A66C C87G A106C A150C,≤ -4.2
10,A41C C63U C76G C93A U127A,≤ -4.2
11,A41C C69G C76G C85G U134A A150U,≤ -4.2
12,A41C C75U C95U C96A U104C C105U,≤ -4.2
13,A41C C85U A122U G126C,-0.655
14,A41C C85U C96A C105G C125U G143U,≤ -4.2
15,A41C C85U C99G C132G U139A,≤ -4.2
16,A41C C87A U144G,≤ -4.2
17,A41C C87G C118G G141U U148G,≤ -4.2
18,A41C C93G,-3.5
19,A41C C93G C99A G133C A150G,≤ -4.2
20,A41C C95G,-0.72
21,A41C C105A,-2.1
22,A41C C114U U127C,-3.96
23,A41C C149A,-4.19
24,A41C G42C C54U G59C G62C G124C U148C,≤ -4.2

row,Variant,polymerase ribozyme fitness (log ratio)
1,A41C G42C G83A G84U A89G C116A U134G G140A G143U,≤ -4.2
2,A41C G42C U77G A113G,≤ -4.2
3,A41C G46A A91G C93A C116G,≤ -4.2
4,A41C G46U C76A U102A C131G,≤ -4.2
5,A41C G48C C57U G84A,-2
6,A41C G50C U55A C85G,≤ -4.2
7,A41C G58A,0.163
8,A41C G58A G68A U104C A113C A147C,≤ -4.2
9,A41C G58C A64C G86U G117A C132A,≤ -4.2
10,A41C G58C U82G A106G A137G,-2.57
11,A41C G59C U82C G86C C108G G141U,≤ -4.2
12,A41C G68A G81U A97G A106G U109C U134G G140A,≤ -4.2
13,A41C G80A C85G A106C G141U,≤ -4.2
14,A41C G83A C116A,-0.205
15,A41C G83C,-0.571
16,A41C G84A G88A A97C A120G C129G,≤ -4.2
17,A41C G94A U104G A113C C116G,≤ -4.2
18,A41C G94C,-1.8
19,A41C G112C C114G,≤ -4.2
20,A41C G140A A142U A150G,≤ -4.2
21,A41C U44A A91U G100U G124C,≤ -4.2
22,A41C U44A G81U G86C C96A,≤ -4.2
23,A41C U45A G67A G94U A98G C123A G133U G143A,≤ -4.2
